First the molecules themselves.
T1: UNK ZnF1-3 (human, UniProt Q9C0B0 31-174)
T1 sequence: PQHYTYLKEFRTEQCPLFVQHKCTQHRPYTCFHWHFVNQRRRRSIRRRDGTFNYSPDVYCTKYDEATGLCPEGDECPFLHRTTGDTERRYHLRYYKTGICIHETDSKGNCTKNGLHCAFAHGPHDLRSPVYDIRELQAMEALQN

B1: chr18:12984129:12984130:+_ENSG00000085415_ENST00000262124|hu_mus|FALSE|FALSE (ssRNA)
RNA: GGGAGUUCUACAGUCCGACGAUCCUUUCUGCUAGCAGAAGUUCCAUUUAAUGAAUUUUGAAGAUUUGGAAUAUUUGAGCUCAGUGAAGGAUUUGAGUUUCCCAGCUGAGAACUCCCAUUUACUGGGCUCCCGUUACCUUUCAACAACAGAGGAUUGAGCAUCA
B2: chr8:96496865:96496866:-_ENSMUSG00000031751_ENSMUST00000053766|mus_hu|FALSE|FALSE (ssRNA)
RNA: GGGAGUUCUACAGUCCGACGAUCGCAGUCCAGUCAACACCAGAAGAGAUCAUACCUACAGUUAAAAUUUGCAGUGUUUCUAAGGGGAAGAGAAAUGUCACAUAGAAAGUAUUACAAAGAAGGAUUAAAUUUAUCAGCUGUCCACAACAGAGGAUUGAGCAUCA
B3: chr10:112764417:112764418:+_ENSG00000108061_ENST00000369452|hu_mus|FALSE|FALSE (ssRNA)
RNA: GGGAGUUCUACAGUCCGACGAUCAAUGGUGGAAAACUGAGAUGGACCUCCCACUGGAUAUAACUGGAAGCAAUUUCUAGCUAAGGUCAAGCUAUUCAAUUUUACAAGACUGGAUAAAAGACUCUCUGGUAGAGUAGAAAUGUUCAACAGAGGAUUGAGCAUCA
B4: 126435287_126435407_3139_3pUTR_ENSMUSG00000078429_ENSMUST00000105256|mouse|control|control (ssRNA)
RNA: GGGAGUUCUACAGUCCGACGAUCGUAACAGGGCUCCCAUGAAGCCACACUGGGCUUUGGUCACAUGGAGAACCAAGAAGCCAGAAAGGGACCUUAAAAUUCAAUCAACUCUGAGGCUCUUAUUGCUUAGUCAAGACCAGCCCUCAACAGAGGAUUGAGCAUCA
B5: chr21:34823002:34823003:-_ENSG00000142188_ENST00000542230|hu_hu|motif|central (ssRNA)
RNA: GGGAGUUCUACAGUCCGACGAUCGUAUUAUAUACAUAUUAACAGUCUAUGCAAUGAAAAAUAAAGAAAUUUCAUAAAACGGUUUCAAAACUCAGAACAUAAAAAUGUAAAGAAACAAAACAUUUAAUGUACAAUCUACUCCAUCAACAGAGGAUUGAGCAUCA
B6: 61446075_61446195_865_CDS_ENSG00000126814_ENST00000261249|human|control|control (ssRNA)
RNA: GGGAGUUCUACAGUCCGACGAUCAAAGUGUUCAUAUGUUAGUUCCAAAUUGUAUUUAGAGAUCUGUGGACUGACAUUAAGCUGCUCUAAAACACUGAGUUCUGCUUUCUCAAAGGAAUCAUGAGUAAAUAUUUUAUAGGGAUCCAACAGAGGAUUGAGCAUCA

Some of the results follow.

In this assay the target is T1, UNK ZnF1-3. Nature of the assay: nsRBNS (natural sequence RNA bind-n-seq); RBNS binding buffer (assumed for nsRBNS): 25 mM Tris pH 7.5, 150 mM KCl, 3 mM MgCl2, 0.01% Triton X-100, 500 ug/ml BSA, 20 U/ml SUPERase-In, 4 C; UNK is unkempt and MSI1 is Musashi-1; names of the RNAs are library labels; protein concentration not given here; high values mean tight binding.
Consider B1, for which the binding signal was determined as 0.343 enrichment R.

In turn, B2 had a binding signal of 2.63 enrichment R.

Take B3: the binding signal amounted to 1.17 enrichment R.

In the case of B4, the binding signal is 1.18 enrichment R.

With B5, the binding signal was 0.529 enrichment R.

Take B6: the binding signal turned out to be 1.14 enrichment R.

For the origin of these results see article PMC12136788.
